Data taken from PubChem BioAssay AID504832 (National Center for Advancing Translational Sciences (NCATS), 2011).
About 18,000 (5.8%) of roughly 310,000 compounds were called active. This list was built around the results that the source calls inconclusive (neither active nor inactive); the mix of calls is not that of the screen. Calls follow the shape of the dose curve; as a rule, active = well fitted inhibition curve with a large enough effect; inconclusive = small, poorly fitted or top-dose-only effect, or another doubt; inactive = no such curve, though single readings can be large or run the other way. No potency is given beside an inconclusive call; the fits are too rough.

assay: Primary qHTS for delayed death inhibitors of the malarial parasite plastid, 48 hour incubation; conditions: P. falciparum luciferase growth in erythrocytes; series mostly up to 28.7 µM
Outline: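 Luminescence readout; reporter = integrated firefly luciferase in P. falciparum. RBC culture at 2% hematocrit, 0.1% parasitemia final, 37 C/5% CO2; decreased signal taken as growth inhibition.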
Potency is read from the fitted curve at half-maximal effect; tags tell the direction and shape of the fitted curve.

Row | SMILES | Potency
1 | CCN(CC)c1ncnc2c1sc1nc(N3CCOCC3)c3c(c12)CCC3 | inconclusive [inhibitor, partial curve]
2 | COc1cccc(N2CN(CCc3ccccc3)CNC2=S)c1 | inconclusive [inhibitor, partial curve]
3 | Cc1occc1-c1nnc(SCC(=O)c2ccc(Cl)cc2)n1CC1CCCO1 (stereo unspecified) | inactive
4 | Cc1ccc(C)c(N(CC(=O)NC2CCCC2)C(=O)c2cc3cc4cc(C)ccc4nc3s2)c1 | inconclusive [inhibitor, single point]
5 | Cc1cnc(CN(C)C(=O)c2cc(COc3c(F)cccc3F)on2)[nH]1 | active: 4.15 µM
6 | CCN1C(=O)CC(N2CCN(CC(=O)NC(C)C)CC2)C1=O (stereo unspecified) | inconclusive [inhibitor, partial curve, poor fit]
7 | COCCN(C(=O)COC(=O)CC1CCCCC1)c1c(N)n(Cc2ccccc2)c(=O)[nH]c1=O | inconclusive [inhibitor, partial curve]
8 | Cc1ccc(-c2nc(CS(=O)(=O)CC(=O)NCCCN(Cc3ccccc3)C(C)C)c(C)o2)cc1 | inconclusive [inhibitor, single point]
9 | CC(=O)c1c(N)c(C#N)c(C)n1-c1ccc(Br)cc1 | inconclusive [inhibitor, partial curve]
10 | CC(C)=CCCC(C)CN1CCC(n2nccc2NC(=O)c2ccccc2)CC1 (stereo unspecified) | inconclusive [inhibitor, partial curve]
11 | O=C(O)CCC(=O)Nc1ccc(-c2csc(Nc3cccc4ccccc34)n2)cc1 | inactive
12 | CN1CCc2c(sc(/N=C/c3cc(C(C)(C)C)ccc3O)c2C#N)C1 | inactive
13 | CC(C)c1ccc(CNCCCSc2ncccn2)cc1 | inactive
14 | COc1cccc2cc(C(=O)N3CCN(C/C=C/c4ccccc4)CC3)c(=O)oc12 | inconclusive [inhibitor, single point]
15 | O=C1/C(=C/c2ccco2)Cc2ccccc21 | inactive
16 | Cc1ccc(C)c(N2CCN(C(=O)C3CCCCN3S(=O)(=O)c3ccc(F)cc3)CC2)c1 (stereo unspecified) | inconclusive [inhibitor, single point]
17 | COc1ccc(Cl)cc1NC(=O)c1cc(-c2ccccc2O)n[nH]1 | active: 10.4 µM
18 | CCCOC(=O)/C(=C\c1ccc([N+](=O)[O-])o1)NC(=O)c1ccccc1 | inconclusive [inhibitor, single point]
19 | Cn1nc(C(F)(F)F)c(C(=O)Nc2ccc(F)cc2F)c1Cl | inactive
20 | CCOc1ccc(NC(=O)CSc2ncc(-c3ccc(F)cc3)n2Cc2ccco2)cc1 | inconclusive [inhibitor, single point]
21 | CCS(=O)(=O)NCCc1csc(-c2ccc(OC)c(OC)c2)n1 | inactive
22 | CNC(=S)N(Cc1ccco1)Cc1cc2cc(OC)ccc2[nH]c1=O | active: 2.62 µM
23 | CN1CCN(c2ccccc2NC(=S)NC(=O)c2cc3ccccc3o2)CC1 | inconclusive [inhibitor, partial curve]
24 | COc1ccc(C(=O)N2CCN(Cc3ccccc3[N+](=O)[O-])CC2)cc1 | inactive

Row | SMILES | Potency
25 | O=C(CC1C(=O)NCCN1Cc1ccccc1C(F)(F)F)NC1CCCCCC1 (stereo unspecified) | inactive
26 | CCN(CC)C(=O)c1[nH]cnc1C(=O)NCc1ccc(CNC(=O)OC(C)(C)C)cc1 | inactive
27 | COc1ccccc1/C=C/CN1CCC(n2nccc2NC(=O)CCc2ccccc2)CC1 | inconclusive [inhibitor, single point]
28 | S=C1NCN(Cc2ccco2)CN1CCc1ccccc1 | inconclusive [inhibitor, partial curve, poor fit]
29 | CN(CC(=O)Nc1ncn[nH]1)S(=O)(=O)c1cc(Cl)ccc1Cl | active: 10.4 µM
30 | CCCC[n+]1c(C)sc2ccc(C)cc21 | inactive
31 | CCOc1ccc(/C=C2\SC(=S)N(CCC(=O)N(CCO)c3ccccc3)C2=O)cc1 | inconclusive [inhibitor, partial curve, poor fit]
32 | Clc1ccc(OCCCn2ccnc2)c(Br)c1 | inconclusive [inhibitor, single point]
33 | CCOc1ccc(-n2c(SCC(=O)Nc3cc(C)on3)nc3c(c2=O)SCC3)cc1 | inconclusive [inhibitor, single point]
34 | COc1ccc(CNC(=O)C(c2ccco2)N(C(=O)c2snc(C(N)=O)c2N)c2ccccc2OC)cc1 (stereo unspecified) | inconclusive [inhibitor, single point]
35 | CC(C)Cn1c(N)c(C(=O)COC(=O)CCc2nc3ccccc3c(=O)[nH]2)c(=O)n(C)c1=O | inconclusive [inhibitor, single point]
36 | COC(=O)[C@@H](Cc1c[nH]c2ccccc12)NC(=O)C1CCCN(S(=O)(=O)c2ccc(C)cc2)C1 (stereo partly specified) | inconclusive [inhibitor, single point]
37 | N#CC1(NC(=O)COC(=O)CCN=C2NS(=O)(=O)c3ccccc32)CCCCC1 | inactive
38 | CCCCCCOc1ccc(N2C(=O)CC(SCCN)C2=O)cc1 (stereo unspecified) | inactive
39 | CSC(=S)N/N=C/c1ccccc1 | inconclusive [inhibitor, single point]
40 | COc1ccc(NS(=O)(=O)c2cccc(C(=O)NC3CCC(O)CC3)c2)cc1 (stereo unspecified) | inconclusive [inhibitor, full curve, poor fit]
41 | CC(OC(=O)C1=COCCO1)C(=O)NC1CCCCC1C (stereo unspecified) | inactive
42 | Cc1ccc(NC(=O)CN(c2ccccc2)S(=O)(=O)N(C)C)cc1C | inactive
43 | COc1ccc2[nH]c(C(=O)N/N=C/c3ccc(OC)c(O)c3)cc2c1 | inconclusive [inhibitor, single point]
44 | CCNC(=S)Nc1ccccc1-c1ccccc1 | inconclusive [inhibitor, single point]
45 | Cn1c(N/N=C/c2cc3ccccc3nc2Cl)nc2ccccc21 | inconclusive [inhibitor, single point]
46 | COc1ccc(CCNC(=O)c2[nH]c(C)c(C(C)=O)c2C)cc1OC | inactive
47 | COc1cc(NC(=O)c2cc3ccccc3cc2O)c(OC)cc1Cl | active: 2.08 µM
48 | COc1cc(/C=C/C(=O)NNC(=O)c2cccc(S(=O)(=O)N(C)C)c2)cc(OC)c1OC | inconclusive [inhibitor, partial curve, poor fit]

Row | SMILES | Potency
49 | CCOC(=O)c1cc(CC)sc1NC(=O)c1cc([N+](=O)[O-])ccc1N1CCOCC1 | inconclusive [inhibitor, partial curve, poor fit]
50 | COC(=O)c1ccccc1NC(=O)C(C)n1nc(C)c2c(C)n(-c3ccccc3)nc2c1=O (stereo unspecified) | inconclusive [inhibitor, single point]
51 | CCN1CCCC1CNC(=O)c1ccc(Sc2ccccc2Cl)c([N+](=O)[O-])c1 (stereo unspecified) | inconclusive [inhibitor, single point]
52 | O=[N+]([O-])c1cccc(S(=O)(=O)Nc2ccc(-c3ccc(N4CCOCC4)nn3)cc2)c1 | inconclusive [inhibitor, single point]
53 | CCOc1ccc(NC(=O)CSc2nc3c(c(=O)n2C)SC(C)C3)cc1 (stereo unspecified) | active: 13.1 µM
54 | O=C(NC(=O)c1ccc(F)cc1F)Nc1ccc(Cl)cc1 | active: 5.22 µM
55 | CC(C)N(CC#CCC(O)(c1ccccc1)c1ccccc1)CCO | inactive
56 | Cc1ccccc1-c1nn(-c2ccc(F)cc2F)cc1CNC1CC1 | inconclusive [inhibitor, partial curve, poor fit]
57 | CCc1ccc(CN2CCC(n3nccc3NC(=O)c3cccc(F)c3)CC2)cc1 | inconclusive [inhibitor, partial curve, poor fit]
58 | COc1ccc(C(CNC(=O)CNC(=O)c2cc(OC)c(OC)c(OC)c2)N2CCOCC2)cc1 (stereo unspecified) | inactive
59 | Cc1ccc(NC(=O)c2c3c(nc4ccccc24)CCC3)cc1S(=O)(=O)N(C)C | inactive
60 | Cc1ccc(S(=O)(=O)N2CCCCC2)cc1NC(=O)CNc1ccc(C(F)(F)F)cc1 | inconclusive [inhibitor, single point]
61 | O=C(Cc1ccccc1[N+](=O)[O-])OCC(=O)N1CCN(c2ccccc2)CC1 | inactive
62 | Cc1ccc(C)c(NC(=O)CN(C)C(=O)c2ccc3c(=O)n4c(nc3c2)CCC4)c1 | inconclusive [inhibitor, single point]
63 | CN(CC(=O)Nc1cccc(F)c1)C(=O)CSc1ccccc1F | inconclusive [inhibitor, full curve, poor fit]
64 | O=C(O)c1nn(CCOc2cccc(Cl)c2)c(=O)c2ccccc12 | inconclusive [inhibitor, partial curve, poor fit]
65 | Cc1ccc(-c2cc(C(=O)NCc3ccco3)c3ccccc3n2)s1 | inactive
66 | COc1ccc(S(=O)(=O)CCc2nnc(NC(=O)c3cccs3)s2)cc1 | active: 2.33 µM
67 | O=C(CCc1nc2ccccc2s1)Nc1ccccc1 | inactive
68 | O=C(N/N=C/c1ccc(O)c(O)c1)c1ccc(-n2cnnn2)cc1 | inconclusive [inhibitor, single point]
69 | CC1(C)S/C(=N/N=C/c2cccs2)NC1=O | inconclusive [inhibitor, full curve, poor fit]
70 | CCn1c(SCC(=O)Nc2ccccc2C)nnc1-c1ccccc1O | inconclusive [inhibitor, single point]
71 | O=C(/C=C/c1ccccc1)NC(=S)NNS(=O)(=O)c1ccccc1 | inactive
